Measurements reported in PubChem BioAssay AID1745853 (National Center for Advancing Translational Sciences (NCATS), 2022).
Some of the results follow. Shown are side measurements of this screen, not its main read-out; they come without a call.

Columns and labels:
Experiment in all cases: Primary Screen for Target Class Profiling of Small Molecule Inhibitors of Methyltransferases
[1] = target: Glycine N-methyltransferase (Homo sapiens) (UniProt Q14749); details: purified enzyme, MTase-Glo SAH luminescence; measured here: GNMT inhibition; at 40 µM; stronger effect = lower value
Outline: (§1)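 Each enzyme was reacted with SAM and its substrate, with compounds tested once at 40 uM; SAH formed was read by MTase-Glo luminescence.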

[2] = target: Guanidinoacetate N-methyltransferase (Homo sapiens) (UniProt Q14353); details: purified enzyme, MTase-Glo SAH luminescence; measured here: GAMT inhibition; at 40 µM; stronger effect = lower value
Outline: as §1

[3] = target: Histamine N-methyltransferase (Homo sapiens) (UniProt P50135); details: purified enzyme, MTase-Glo SAH luminescence; measured here: HNMT inhibition; at 40 µM; stronger effect = lower value
Outline: as §1

[4] = target: Nicotinamide N-methyltransferase (Homo sapiens) (UniProt P40261); details: purified enzyme, MTase-Glo SAH luminescence; measured here: NNMT inhibition; at 40 µM; stronger effect = lower value
Outline: as §1

[5] = target: Phenylethanolamine N-methyltransferase (Homo sapiens) (UniProt P11086); details: purified enzyme, MTase-Glo SAH luminescence; measured here: PNMT inhibition; at 40 µM; stronger effect = lower value
Outline: as §1
On the % scale 0 is the no-effect control and ±100 the full control effect.

| Structure (SMILES) | activity change, negative = inhibition [1] [%] | activity change, negative = inhibition [2] [%] | activity change, negative = inhibition [3] [%] | activity change, negative = inhibition [4] [%] | activity change, negative = inhibition [5] [%] |
| --- | --- | --- | --- | --- | --- |
| CCOc1ccc(Cc2nc(-c3c(C)nc4ccccn34)cs2)cc1 | -12.2 | -15.3 | -3.55 | -24.2 | -10.4 |
| Cc1cncc(C(=O)NC2CCN(c3ccc(=O)n(C)n3)CC2)c1 | -2.35 | -0.149 | 0.472 | -8.3 | -4.5 |
| CNC(=O)[C@@H]1CN(C(=O)NCc2ccc(C)cc2)C[C@H]1c1nc(C)no1 | 0.534 | 0.701 | 2.43 | -1.46 | -0.1 |
| COc1ccc(C(OC2OC(CO)C(O)C(O)C2O)C(C)O)cc1 (stereo not given) | 0.875 | -2.94 | 9.5 | -16.3 | 1.95 |
| CN1C(=O)c2cc(C(=O)NCCc3cccs3)nn2CC1(C)C(=O)NCc1ccccc1 (stereo not given) | 4.32 | 0.481 | 9.31 | 0.078 | 8.03 |
| COc1ccc(CCNC(=O)c2ccc3c(=O)nc4c(-c5ccccc5)n[nH]n4c3c2)cc1OC | -46.5 | -2.94 | -9.15 | -10.4 | -11.1 |
| COc1ccccc1CNC(=O)CN1CCCC(CO)(CC2CC2)C1 (stereo not given) | -2.51 | -3.08 | 1.53 | -2.84 | -0.588 |
| CC1(C)CC2=C3C=CC4C5(C)CCC(O)C(C)(C)C5CCC4(C)C3(C)CCC2(C)C(O)C1 (stereo not given) | -0.463 | -9.75 | 3.4 | -20.5 | -5.23 |
| Cc1nnc2n1CCC(N(C)C(=O)NC1CCCCC1)CC2 (stereo not given) | -5.62 | -5.98 | -4.97 | -8.35 | -6.56 |
| O=C1CO[C@H]2CN(Cc3ccc4c(c3)OCO4)C[C@H]2N1Cc1ccc(F)cc1 | -2.72 | 0.43 | 0.424 | -4.63 | 1.11 |
| O=C(Cc1ccc(F)cc1)NCc1nnc2ccc(-c3ccc(Cl)cc3)nn12 | -0.699 | 0.566 | 0.924 | -1.79 | -4.39 |
| COc1ccc(Cl)cc1NC(=O)Cn1c(=O)oc2cc(S(=O)(=O)N3CCCC3)ccc21 | -10.3 | -0.753 | -2.56 | -3.84 | -8.18 |
| CC(C)Cn1c(=O)c2ccccc2n2c(SCC(=O)NCc3ccccc3)nnc12 | -3.95 | 0.657 | -0.199 | -2.62 | -3.1 |
| Cc1c(Cl)cccc1NC(=O)N1CCn2cccc2C1Cc1ccccc1 (stereo not given) | 12.1 | 2.93 | 6.24 | -3.17 | 2.54 |
| C=C1C[C@]23C[C@@]1(O)CC[C@H]2[C@@]12C=C[C@H](O)[C@@](C)(C(=O)O1)[C@H]2[C@@H]3C(=O)O | 4.45 | -0.673 | 6.04 | -9.56 | 2.66 |
| Cn1nc2n(c1=O)CCN(C(=O)c1ccc(F)cc1F)CC2 | 0.111 | -3.41 | 2.12 | 1.71 | 0.838 |
| CCC1c2ccc(C)n2CCN1C(=O)Nc1ccc(C)c(C)c1 (stereo not given) | -4.04 | 1.71 | -2.79 | 1.85 | -3.46 |
| Cc1cc(C)cc(NC(=O)Cn2nc3n(CC(C)C)c(=O)c4ccc(C(=O)NCC(C)C)cc4n3c2=O)c1 | 10.1 | 1.73 | 11.1 | 12.7 | 9.83 |
| CC(C)Cn1c(=O)c2ccccc2n2c(SCC(=O)Nc3ccc4c(c3)OCCO4)nnc12 | -12.1 | 2.01 | 4.54 | -11.3 | -0.73 |
